# Source: publication PMC7819943, “Rice protein-binding microarrays: a tool to detect cis-acting elements near promoter regions in rice”
# The other results are listed elsewhere or left out.
# Biological target: T1, OsWOX13 (Oryza sativa, UniProt Q5QMM3 1-267)
# T1 sequence: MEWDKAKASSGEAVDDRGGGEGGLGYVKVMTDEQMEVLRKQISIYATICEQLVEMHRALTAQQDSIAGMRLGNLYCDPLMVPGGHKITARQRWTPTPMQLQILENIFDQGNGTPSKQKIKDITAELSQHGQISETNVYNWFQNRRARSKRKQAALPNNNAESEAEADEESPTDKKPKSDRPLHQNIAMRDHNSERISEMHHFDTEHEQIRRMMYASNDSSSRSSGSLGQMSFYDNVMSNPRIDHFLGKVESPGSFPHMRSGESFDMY
# Assay: protein-binding microarray (RPBM); PBS, 2% BSA, 51.3 ng/ul salmon testes DNA, 50 uM zinc acetate, 200 nM TF, 25 C, 1 h; high values mean tight binding
# Conditions: protein: recombinant; tags: N-terminal polyhistidine and DsRed monomer fusion (pET32a); label: CyDye5-dUTP incorporated in the synthesized complementary strand; 3' TTTTT single-stranded linker to array surface; dsDNA, one strand shown
# In short: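 Binding signal is reported as fluorescence intensity per feature (arbitrary units) from an Axon 4000B scanner. Incubation used 200 nM of each Ni–NTA-purified, N-terminally polyhistidine- and DsRed-fused transcription factor from E. coli BL21-CodonPlus on a double-stranded custom Agilent array for 1 h at 25 °C, with 50 µM zinc acetate in the buffer, followed by washing.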
row,Sequence,binding signal
1,ATTAATAATTAAAGATTTTAAAGTTTGACCTTACTCTTGTCGGAGTCACCTAGTGCAG,15300 fluorescence intensity (a.u.)
2,TAATATAATTATTTCTTACTTTCACAAACTCCGATGTAATCGGAGTCACCTAGTGCAG,3480 fluorescence intensity (a.u.)
3,CTGTGTAAACATAATTTATGAATATCATAGTGGACGTCGTCGGAGTCACCTAGTGCAG,7050 fluorescence intensity (a.u.)
4,AAATACTCATAATAATTGCTAGTGAATGATGATGTGGCACCGGAGTCACCTAGTGCAG,6790 fluorescence intensity (a.u.)
5,TCGTAACTGAATTTCTCCGGATTGAGTAAGAATAGGAAACCGGAGTCACCTAGTGCAG,8690 fluorescence intensity (a.u.)
6,ATTTTCCATTTTGAAAATTGACGGAAATAGTCGCCTACCGCGGAGTCACCTAGTGCAG,6810 fluorescence intensity (a.u.)
7,ATCAAAGCAGGATAAATTAGATGATCTTTAATTATGTTCTCGGAGTCACCTAGTGCAG,5250 fluorescence intensity (a.u.)
8,ATTGATGTTAATGAATCTAGATATATATATTTATCTAGATCGGAGTCACCTAGTGCAG,3470 fluorescence intensity (a.u.)
9,CATCACGGAGGAGTTGATTGGCATGCTCTGAAAGTTACTTCGGAGTCACCTAGTGCAG,30000 fluorescence intensity (a.u.)
10,TGGAATTTTGAGTGTGTGATTGCGTTATTACGTTGCAAGTCGGAGTCACCTAGTGCAG,3550 fluorescence intensity (a.u.)
11,TTGATAGTAAATCAAACATTAATAAAGGCCTGTTCACTTTCGGAGTCACCTAGTGCAG,8860 fluorescence intensity (a.u.)
12,AAACTAATTGCTCAGGAGGGATTTAGGGGTAACTCTTAATCGGAGTCACCTAGTGCAG,10400 fluorescence intensity (a.u.)
13,AGAAATCACGAACATGAAATTGGACAGACTTCACGGCACTCGGAGTCACCTAGTGCAG,8800 fluorescence intensity (a.u.)
14,ATACGCTTCTTAATTTAGTTCCCTCCCATTCCCTTTTACCCGGAGTCACCTAGTGCAG,3190 fluorescence intensity (a.u.)
15,GACATAAACTGGAATAAGTCCACTTGCCTTCCCTCAACTTCGGAGTCACCTAGTGCAG,3600 fluorescence intensity (a.u.)
16,TTAACAGCAACAAATTGTTGGCCAGCCACGTCCCGGGTCCCGGAGTCACCTAGTGCAG,7980 fluorescence intensity (a.u.)
17,CTTTGTTTCAATAATTTGAATTTGAATTTCAAATTATGACCGGAGTCACCTAGTGCAG,15400 fluorescence intensity (a.u.)
18,GTAGATTTGATCGCTGCCTCTTGCGGTTAAATTCTCGGTGCGGAGTCACCTAGTGCAG,9220 fluorescence intensity (a.u.)
19,ACTATGCTTACAATCACGTCCATCATCAAGTATTTAGATGCGGAGTCACCTAGTGCAG,6540 fluorescence intensity (a.u.)
20,ATAATTTATTAGATTGTAAATTTAAGAGATTTAAATACAACGGAGTCACCTAGTGCAG,22100 fluorescence intensity (a.u.)
21,CATGATTAGCCATAAGAGTTACAGTAACCCACATGTGCTACGGAGTCACCTAGTGCAG,40700 fluorescence intensity (a.u.)

row,Sequence,binding signal
1,CAGAAGCTGATTTTGTTTGTGTGTAAATGAATTTGATCACCGGAGTCACCTAGTGCAG,4720 fluorescence intensity (a.u.)
2,GTTGCGTGCAACAATTGGGCTAATTGATTGCACACGAGAACGGAGTCACCTAGTGCAG,16900 fluorescence intensity (a.u.)
3,TTTTAAACTATGTTAACACAAGTTTGGTTACATGTCAGGCCGGAGTCACCTAGTGCAG,4030 ± 134 fluorescence intensity (a.u.)
4,TTCTGATAGAGAATCGAAATGGGCTACTCGTAGAATGAATCGGAGTCACCTAGTGCAG,4460 fluorescence intensity (a.u.)
5,TGGATGATAATTTAACATGTTTATATTTGAAAAGCTCTTACGGAGTCACCTAGTGCAG,13500 fluorescence intensity (a.u.)
6,GGTGATTGATAGCGTGGCTGTTCTTGCTATATCAATTTATCGGAGTCACCTAGTGCAG,47200 fluorescence intensity (a.u.)
7,TTACTAATTTTAATCTTTGCCTAATTTGCTACCCTGACTACGGAGTCACCTAGTGCAG,25500 fluorescence intensity (a.u.)
8,CCACCACCTACCAAAATTGATGGACACCAAAATAAATCCGCGGAGTCACCTAGTGCAG,5620 fluorescence intensity (a.u.)
9,AACATGATGATGATATGAATACTATATAGCGTACTCTTTTCGGAGTCACCTAGTGCAG,5510 fluorescence intensity (a.u.)
10,ACTGATAACTTCCAACTGATAATTGGAGAAGGAGGGTTTGCGGAGTCACCTAGTGCAG,12400 fluorescence intensity (a.u.)
11,GAGCTAATATCAATCTATCATGTGTCTATGCTCCTACCCTCGGAGTCACCTAGTGCAG,23500 fluorescence intensity (a.u.)
12,CATTAATTGTATTAGCACCTTTCTCTCATGCATGCCGCCCCGGAGTCACCTAGTGCAG,38600 fluorescence intensity (a.u.)
13,GACGAAAATTAGACAGTCCGACAAATAGAGGGACCTAAAGCGGAGTCACCTAGTGCAG,3410 fluorescence intensity (a.u.)
14,GGAACTGATTGTATGCCTTCTGACTGTATAAACTATTCATCGGAGTCACCTAGTGCAG,20800 fluorescence intensity (a.u.)
15,AATCTAATCCATCAAATTAAAGGGATGGCTTAGATTAAGTCGGAGTCACCTAGTGCAG,4690 fluorescence intensity (a.u.)
16,TGACTAAATTCAAATCAATTTGGGAAATAATTCCATGTTCCGGAGTCACCTAGTGCAG,16300 fluorescence intensity (a.u.)
17,TTTCTTTGACAGGGTGATGTTGGTTGTGGTAAAACCGTAGCGGAGTCACCTAGTGCAG,6810 fluorescence intensity (a.u.)
18,GATTAATTTTGTTTCTGTTATTAACTCGACAGTTTGTGTGCGGAGTCACCTAGTGCAG,36300 fluorescence intensity (a.u.)
19,AGCTGTCATTAATTAATTACTAGTAGCTGTTGTTCATGTACGGAGTCACCTAGTGCAG,37800 fluorescence intensity (a.u.)
20,GAATCTATTAAGCCTAATTAATCCGTTATTATAGCAAATACGGAGTCACCTAGTGCAG,6470 fluorescence intensity (a.u.)
21,CTATTTCTTTGATAAATTAATAGATGTTTACTAGTACTCCCGGAGTCACCTAGTGCAG,5260 fluorescence intensity (a.u.)

row,Sequence,binding signal
1,TTAGCAAATTAAGATCATCTCATCTCTATCCATGTATTCACGGAGTCACCTAGTGCAG,4260 fluorescence intensity (a.u.)
2,AATTAATTAGGTGAAGAAATTAAAAGATAAGTTGCTTTAACGGAGTCACCTAGTGCAG,17200 fluorescence intensity (a.u.)
3,CAATTTAATTAGACCGCAAATCCTAGATCGAGGTGACGCCCGGAGTCACCTAGTGCAG,12900 fluorescence intensity (a.u.)
4,ATTTATTTTATTATTAATTTATATTTAATATATATTTAATCGGAGTCACCTAGTGCAG,4280 fluorescence intensity (a.u.)
5,TATAACTAAAATTATATTTGTAAGTTTAGTTGATATGACACGGAGTCACCTAGTGCAG,6390 fluorescence intensity (a.u.)
6,GAGGAAATTGGAGGATGGTAACACTGAAGAGAATGGAGATCGGAGTCACCTAGTGCAG,4930 fluorescence intensity (a.u.)
7,AAACTAATTTAAATCTGTGCTAACATCCAGCATTTTACTTCGGAGTCACCTAGTGCAG,13800 fluorescence intensity (a.u.)
8,GTTGTGTAACTGATTGACCGGGTTGTGTGGCTAAACGTGGCGGAGTCACCTAGTGCAG,39800 fluorescence intensity (a.u.)
9,TATAATTTGAAATTCAAATTTAAATTATTGAAACAGAGTCCGGAGTCACCTAGTGCAG,44600 fluorescence intensity (a.u.)
10,GAGTCAATTAAGGTCGCTGGTAACAGCCAGTGCTCGGCTCCGGAGTCACCTAGTGCAG,19700 fluorescence intensity (a.u.)
11,CAGATCTATGATTGGGCCGTGATGGACGGGCCCGATTCAACGGAGTCACCTAGTGCAG,27000 fluorescence intensity (a.u.)
12,CAACCTTACTAATCAATCGGATGCATATATATGGGCTTGGCGGAGTCACCTAGTGCAG,5030 fluorescence intensity (a.u.)
13,TGAAACCAATGATTGCAAGCAACATTACGCGTCGCCGAGTCGGAGTCACCTAGTGCAG,18000 fluorescence intensity (a.u.)
14,TTGTCAATTACTGCTCCGGTGACTGTTAATTTGGATTTTCCGGAGTCACCTAGTGCAG,32900 fluorescence intensity (a.u.)
15,ATCATCATCGGCTTGTCAATCATATCATCATCGTTCATTTCGGAGTCACCTAGTGCAG,8720 fluorescence intensity (a.u.)
16,ATAAGCTGATGATTAGGCTATCCTGAACTGTTGCTCTCGGCGGAGTCACCTAGTGCAG,8130 fluorescence intensity (a.u.)
17,ACGTAATAATTAAATATTCCAAATACAACGGAAACGTAATCGGAGTCACCTAGTGCAG,7270 fluorescence intensity (a.u.)
18,GGGTAATCACAGTCGATTTTCTGTTCAAATTGATATCCCTCGGAGTCACCTAGTGCAG,14400 fluorescence intensity (a.u.)
19,TTTTGATCACCCGTTTCTGATGGAATGGAAGTCCCTTGCCCGGAGTCACCTAGTGCAG,3800 fluorescence intensity (a.u.)
20,CAAAATGAGAATAAATTGAATTCAATTCAAACCTCTTAATCGGAGTCACCTAGTGCAG,16500 fluorescence intensity (a.u.)
21,GTTGATTTTCATAATGAAGCTGTATTTCAATTTTGAACTGCGGAGTCACCTAGTGCAG,22300 fluorescence intensity (a.u.)

row,Sequence,binding signal
1,TTGATTAGACACAACATGTTCGGCTGCTCACTGCCAACAGCGGAGTCACCTAGTGCAG,21500 fluorescence intensity (a.u.)
2,CAAATTGAAGAGGATGCATGAATTGGATTTGCAGGAGAAGCGGAGTCACCTAGTGCAG,5250 fluorescence intensity (a.u.)
3,TTATTTAGATTGAGAGTAGTATGTCCACATCGCATATCTTCGGAGTCACCTAGTGCAG,25800 fluorescence intensity (a.u.)
4,ATATTTAAACACTAATTTAGAGTATTAAATATAGACTACTCGGAGTCACCTAGTGCAG,9470 fluorescence intensity (a.u.)
5,GCGATCAATTAGTGCGTGATTAATTAAGTATTAGCTATTTCGGAGTCACCTAGTGCAG,4760 fluorescence intensity (a.u.)
6,CCGGTAATAGAAGGTACGGAAATTTAGTGCAAATTTTAGTCGGAGTCACCTAGTGCAG,3860 fluorescence intensity (a.u.)
7,TCTGATTGATGATGACGATGATGGCGGCTGTGCAGCTGAACGGAGTCACCTAGTGCAG,47600 fluorescence intensity (a.u.)
8,ATATTTAATCTCTATTTAACAATTGCTGATGATGGCTGGCCGGAGTCACCTAGTGCAG,7210 fluorescence intensity (a.u.)
9,AAAATTGATGGCCCCAGGCTGGCAGCGCCCTGAGATCCTTCGGAGTCACCTAGTGCAG,12300 fluorescence intensity (a.u.)
10,ATAAATTGGTGGACGTCCACTTGAGTTAGAATCCTCTCCCCGGAGTCACCTAGTGCAG,23300 fluorescence intensity (a.u.)
11,TCTATCAATCAGTTTGGACAGTGAGCGACAGAGGCGGCGCCGGAGTCACCTAGTGCAG,4190 fluorescence intensity (a.u.)
12,CTATAATTAATCTCGCCGGAGTCCTCGCCGCGAACCCACCCGGAGTCACCTAGTGCAG,17300 fluorescence intensity (a.u.)
13,ATAATTATATAATATATAATTAGCATATTAAACTACACGACGGAGTCACCTAGTGCAG,34500 fluorescence intensity (a.u.)
14,GATAATTGAAGGGCGCTATATACCTGATTTTACGGTTGAGCGGAGTCACCTAGTGCAG,45500 fluorescence intensity (a.u.)
15,AGAAAATGCCATAGTTAATTGCATACTTGCATGTATGCCTCGGAGTCACCTAGTGCAG,6780 fluorescence intensity (a.u.)
16,GGTGACATAACTGAACAAGTTGGAGGACCTAAACGAGTGACGGAGTCACCTAGTGCAG,8010 fluorescence intensity (a.u.)
17,TTTATACAATTATTATTACTGCTATTGGTAATAATGCTTTCGGAGTCACCTAGTGCAG,3450 fluorescence intensity (a.u.)
18,ACAGATTAAACAATCAAATAAAACTACATGTGAACACCTACGGAGTCACCTAGTGCAG,13000 fluorescence intensity (a.u.)
19,TATAATTATTCTAGCTACGAACCAGAGCATTTTATATCTTCGGAGTCACCTAGTGCAG,5860 fluorescence intensity (a.u.)
20,ACAAAACAAATTACAGATTCCGCTTATAAACTGCGAGACGCGGAGTCACCTAGTGCAG,10100 fluorescence intensity (a.u.)
21,GCAGCAAAATGGAAATTGATACCAAACTAATTTTCTCATTCGGAGTCACCTAGTGCAG,10600 fluorescence intensity (a.u.)
